B1: LINE1-mini (parent)
chain: GGCAGAGCUCAACACAGCGUGGCAAAGUGGCUGUGGCUAGACUGCC

Read counts are not given, so values of variants with three or more changes are uncertain.

In the data set the parent is B1. As to the kind of experiment: self-cleavage, relative activity (ratio to wild type); higher = more cleavage; in vitro, sequencing; the parent is a self-cleaving ribozyme.
For GGCAUAGCUCAAAACAGCGUGUCAAAGUGGCUAUGGCUCGACUGCC [G5U C13A G22U G33A A39C], the self-cleavage amounted to 0.01.
To GGCAUAUCUCAACACAGCGUGGCAAGGUGGCUGUGGCUAGCCUGCC [G5U G7U A26G A41C] belongs 0.04.
Under GGCAUAGCUCAACACAGCUUGGAAAAGUGGCUGUGACUAGACUGCC [G5U G19U C23A G36A] stands 0.03; under GGCAUAUCUCAACACAGCGUGACAAAGUGGCUGUGGCUAGACUGCC [G5U G7U G22A], 0.29.
Under GGCAUAGCUCAACAGAGCGUGGCCAAUUGGCUGUGGCUAUACUGCC [G5U C15G A24C G27U G40U] stands 0.01.
On to GGCAUAGCUUAACACAGCGUAGAAAAGUGGCUGUGGGUAGACUGCC [G5U C10U G21A C23A C37G], for which the self-cleavage worked out at 0.01.
GGCAUAGCUCAAAACAGCGUGGCAAAGUGGCUGUGGCUAGACCGCC [G5U C13A U43C]: the self-cleavage was determined as 0.05.
Under GGCAUAGCUCAAGACCGCGUGGCAAGGUGGCUGUAGCUAGACUGGC [G5U C13G A16C A26G G35A C45G] stands 0.03; under GGCAUAGCUCAAUACAGCGUGGCAAAGUGGCUGUGGCUAGACUGCU [G5U C13U C46U], 0.13.
Turning to GGCAUAGCUCAAAACAGCGUGGCAAAGUUGCGGUUGCUAGACUGCC [G5U C13A G29U U32G G35U], the self-cleavage was 0.08.
As for GGCAUAGCUCAAAACAGAGCGGCAAAGUGGCUGUGGCUAGACUGCC [G5U C13A C18A U20C], the self-cleavage amounted to 0.03.
Take GGCAUAGCUCAACACAACGUUGCAAAGUGGCUGUGGCUAUACUGCC [G5U G17A G21U G40U]: the self-cleavage amounted to 0.02.
To GGCAUAGCUCAACACAGCGUGGCAAAGUGGAUACGGCUAGACUGCC [G5U C31A G33A U34C] belongs 0.02; to GGCAUAGCUCAAUACAGCGUGGCAAAUUGGGUUUUGCCAGACUGCA [G5U C13U G27U C31G G33U G35U U38C C46A], 0.11; to GGCAUAGCUCAAUACAGCGUGGCAUAGUGGCUGUGGCUAGACUGCC [G5U C13U A25U], 0.08.
To GGCAUAGCUCAAUACAGCGUGGCAGAGUGGCUGUGGCUAGACUGCC [G5U C13U A25G] belongs 0; to GGCAUAGCUCAACACAGCGUAGCAUAGUGGCUGGGGCUAGACUGCA [G5U G21A A25U U34G C46A], 0.02.
Under GGCAUACCUCAACACAGCCUGGCAAAGUGGCCGUGGCUAGACUGCC [G5U G7C G19C U32C] stands 0.11; under GGCAUAGCUCAACAAUGCGUGGCAUAGUGGCUGUGGCUAGACUGCC [G5U C15A A16U A25U], 0.01; under GGCAUAGCUCAACAUAGCUUGGGAAAGUGGCUGUAGCUAGACUGCC [G5U C15U G19U C23G G35A], 0.03.
With GGCAUAGCUCAAUACAGCGUGGCAAAGUGGCUAUAGCGAGACUGCC [G5U C13U G33A G35A U38G], the self-cleavage worked out at 0.05.
Regarding GGCAUAGCUCAACACAGCGUUGCAAAGUUGCUGUGGCUAGACUGCC [G5U G21U G29U], the self-cleavage was 0.06.
As to GGCAUACCUCAACACUGCGUGGCAAAGUGGCUGUGGCUAGACUGCC [G5U G7C A16U], the self-cleavage was 0.1.
To GGCAUAGCUCAACACACCGUGGCAAAGCGGCUGUGGUUAGACUGCC [G5U G17C U28C C37U] belongs 0.02; to GGCAUAGCUCAACACAACGUGGAAAAGUGGGUGUGGGUAGACUGCC [G5U G17A C23A C31G C37G], 0.02; to GGCAUAGCUUAACACAGCGAGGCAAAGUGGCUGUGGCUAGACUGCC [G5U C10U U20A], 0.06.
Under GGCAUACCUCAACACAGCGUGGCAAAGUGGCUGAGGCUAGACUGCC [G5U G7C U34A] stands 0.02; under GGCAUAUCACAACACAGCGUGGCAAAGUGGCUGUGGCUAGACUGCC [G5U G7U U9A], 0.31; under GGCAUAGCUCAACAAAGCGUGGCAAAGUGGAUGUGGCUAGACUGCG [G5U C15A C31A C46G], 0.02.
GGCAUAGCUCAACACAGCGUGGAAAAGUGGCUGUGGCUUGACUGCC [G5U C23A A39U]: the self-cleavage came to 0.04.
Take GGCAUAUCUCAACACAACGUGGCAAGGAGGCUGUGGCUAAAGUGCC [G5U G7U G17A A26G U28A G40A C42G]: the self-cleavage came out at 0.02.
Regarding GGCAUAGCUCAACACAGCAUGGCAAUGUGGCUGUGGCUAAACUGCC [G5U G19A A26U G40A], the self-cleavage came to 0.06.
To GGCAUAGCUCAACACAGCGUGGCAAAGUGGUUGUGGUUAGACUGCC [G5U C31U C37U] belongs 0.09; to GGCAUAGCUCAACACAGUGGGGCAAAGUGGAUGUGGCUAGACUGCC [G5U C18U U20G C31A], 0.01; to GGCAUAGCUCAACACAGGGUGGCAAAGUGACCGAGGCUAGCCUGCU [G5U C18G G30A U32C U34A A41C C46U], 0.
Turning to GGCAUAGCUCAAAACAGCGUGGCAAAGCGGCUGUGGCUGGAAUGCC [G5U C13A U28C A39G C42A], the self-cleavage was 0.04.
As to GGCAUAGCUCAACACAGCGUUGCAAAGUGUCUGUGGCUAGACCGCC [G5U G21U G30U U43C], the self-cleavage turned out to be 0.01.
With GGCAUAGCUCAACACAGGGUGGCAAAGUGGCUGUCGCUAGACCGCC [G5U C18G G35C U43C], the self-cleavage stood at 0.
To GGCAUAGCUCAACACAAAGUGGCAAAGUGGCUGUGGCUGGACUUCC [G5U G17A C18A A39G G44U] belongs 0.04; to GGCAUAGCUCAACACAGCGUGGCAAAGUGGGAGUGGCUAGACUGCC [G5U C31G U32A], 0.04.
Turning to GGCAUAGCUCAACACAGCGUGGUAAGGUGGCUGUGGCUGGCCUGCC [G5U C23U A26G A39G A41C], the self-cleavage stood at 0.04.
Under GGCAUAGCUCAACACAGCGUGGCAAAGUGGCUGUGGUUAGACCGCC [G5U C37U U43C] stands 0.01; under GGCAUAGCUUAACACAGCGUGGCAAAGUGGCUGUGGCUAGACUGCU [G5U C10U C46U], 0.03.
To GGCAUAGCUCAACAGAGCGUGGCAAAGGGGCUGUGGCUAGACUGCC [G5U C15G U28G] belongs 0.02; to GGCAUAGCUCAAUACAGCGUGUCAAAGUGGCUGUGGCUGCACUGCC [G5U C13U G22U A39G G40C], 0.04.
Under GGCAUAGCUCAAGCCAGUGUGGCAAAGUGGGUGUGGCUAGACUGCC [G5U C13G A14C C18U C31G] stands 0.03; under GGCAUAGCUCAACAAAUCGUGGCAAAGUGGCUGUGGCGAGACUGCC [G5U C15A G17U U38G], 0.04; under GGCAUAGCUCAACACAGCGUGGCAAAGUGGAUGUGGCUAGUCUGCC [G5U C31A A41U], 0.07.
Take GGCAUAGCUCAACACAGGGUGGCAAAUUGGCUGUGGCUAAACUGCC [G5U C18G G27U G40A]: the self-cleavage was found to be 0.1.
GGCAUAGCUCAACACAGCGUGGUAAAGUGGCUGUGGCUAGGCUGCA [G5U C23U A41G C46A]: the self-cleavage stood at 0.06.
Under GGCAUAGCUCAAAACAGCGUGGCAAAGUGGCUGUAGCUAGAAUGCC [G5U C13A G35A C42A] stands 0.08.
Under GGCAUAGCUCAACAUAUCGUGGCAAAGUGGCUGUGGCUAGACUGCC [G5U C15U G17U] stands 0.06; under GGCAUACCUCAACACAGCGUGGCAAAGUGGCUGUGGCUAGACCGCC [G5U G7C U43C], 0.09.
Under GGCAUAGCUCAACACAGCGUGGCAAAGUGGCUGUGGCUAGAUUGCG [G5U C42U C46G] stands 0.05; under GGCAUAGCUCAACACAGAGUGGCAAAGUGGCUGGGGCUAGACUGCC [G5U C18A U34G], 0.06; under GGCAUAGCUCAACACAGCGUGGUAAAGUGGCUGUGGCUACAAUGCC [G5U C23U G40C C42A], 0.03.

Values taken from the RNAGym collection of RNA variant scans (doi:10.7554/elife.90254).
